Read counts are not given, so values of variants with three or more changes are uncertain.

B1: LINE1-mini (parent)
chain: GGCAGAGCUCAACACAGCGUGGCAAAGUGGCUGUGGCUAGACUGCC

The variants in this data set derive from B1. Description: self-cleavage, relative activity (ratio to wild type); higher = more cleavage; in vitro, sequencing; the parent is a self-cleaving ribozyme.
As for GGCAGAGCGCAACAUAGCGUGGCAAAGUGGCAGUGGCUAGACUGCC [U9G C15U U32A], the self-cleavage was 0.02.

Consider GGCAGAGCGCAACACAGCGUAGCAAAGUGUAUGUGGCUAGACUGCC [U9G G21A G30U C31A], for which the self-cleavage was found to be 0.02. Turning to GGCAGAGCGCAACACAGCGUGGCAACGUGGCUGUGGCUGGCCUGCC [U9G A26C A39G A41C], the self-cleavage was 0.

For the variant GGCAGAGCGCAACACAGCGUGGCAAAGUGGCUGUGGAAAGACCGCC [U9G C37A U38A U43C], the self-cleavage came out at 0.08. In the case of GGCAGAGCGCAACACAGCGUGGCAAAGUGGCUGUGGGUAGCCAGCC [U9G C37G A41C U43A], the self-cleavage was determined as 0.06.

Regarding GGCAGAGCGCAACACAGCGUGCCAAAUUGGCUGUGGCUAGACUGCC [U9G G22C G27U], the self-cleavage is 0.

Take GGCAGAGCGCAACACAGCGUGGCAAAGAGGCGGUGGCUAGACUGCC [U9G U28A U32G]: the self-cleavage worked out at 0.01.

With GGCAGAGCGUAACACAGCGUGGCAAAGCCGCUGUGGCUAGACCGCC [U9G C10U U28C G29C U43C], the self-cleavage was 0.01. For the variant GGCAGAGCGGAACACAGCAUGGCAAAGUGGCUGUGGCUAGACUGCC [U9G C10G G19A], the self-cleavage stood at 0.02. Consider GGCAGAGCGCAACACAGCAUGGCAAAGAGGCAGUGGCUAGACUGCC [U9G G19A U28A U32A], for which the self-cleavage was determined as 0.06. As for GGCAGAGCGAAACACACCGUGGCAAAGUGGCUGUGGCUAGAAUGCC [U9G C10A G17C C42A], the figure is 0.01; as for GGCAGAGCGCAACACAGCGCGGCAAAGUGGCCGUGGCUAGACUGCC [U9G U20C U32C], 0.05; as for GGCAGAGCGCAACACAGCGUGGCAUAGUGGCUGUGGCUUGAAUGCC [U9G A25U A39U C42A], 0.04. For GGCAGAGCGCAACACUGCGUGGCAAAGUGGCUGUGCCUAGACUGCA [U9G A16U G36C C46A], the self-cleavage turned out to be 0.02. Take GGCAGAGCGUAACACAGCGUGGCAAAGUGGCUGUGGUAUGACUGCC [U9G C10U C37U U38A A39U]: the self-cleavage was 0.01. For GGCAGAGCGCAAUACAGCUUGGCAAAGUGGCUGUGGCUCGACUGCC [U9G C13U G19U A39C], the self-cleavage was found to be 0.09. Take GGCAGAGCGCAACAAAGCGUGGUAACGUGGCUGUGGCUAGACUGCC [U9G C15A C23U A26C]: the self-cleavage was determined as 0.02. Under GGCAGAGCGAAACACAGCGUGGCAAAGUGGCUGUGGCUAGACAGCG [U9G C10A U43A C46G] stands 0.01; under GGCAGAGCGCAACACAGCGUGACAAGGUGGCUGUGGCUAGACUGCC [U9G G22A A26G], 0.03. As for GGCAGAGCGCAACACAGGGUGCCAAAGUGGCUGUGGCUAGACUGGC [U9G C18G G22C C45G], the self-cleavage is 0.11. For GGCAGAGCGCAACACAGCGAGGCAAAGUGGCUGUGGCUAGAGUGCC [U9G U20A C42G], the self-cleavage was determined as 0.55. As for GGCAGAGCGCAACACAGCGUGGCAAGGUGUCUGUUGCUAGACUGCC [U9G A26G G30U G35U], the figure is 0.02. As for GGCAGAGCGUUACACAGCUUGGCAAAGUGGCUGUGGCUAGAGUGCC [U9G C10U A11U G19U C42G], the self-cleavage was 0.02. For GGCAGAGCGCAACAGAGCGCGGCAAAGUGGCUGUGGCUAGACUGCC [U9G C15G U20C], the self-cleavage turned out to be 0.07.

As for GGCAGAGCGCAACACAGCGUGGCAAUGUGGCUGUGGCUAUACUACC [U9G A26U G40U G44A], the self-cleavage was found to be 0.02. As to GGCAGAGCGCAACACAGCGUGCCAAAGUGGCUGUGGCUAGCCUGCC [U9G G22C A41C], the self-cleavage is 0.03. Consider GGCAGAGCGCAACACAGCUUAGCAAAGUGGCUGUGGCUAGACUGAC [U9G G19U G21A C45A], for which the self-cleavage came out at 0.25. With GGCAGAGCGCAACAAAGCGUGGCAGAGUGCCUGUGCCUAGACCGCC [U9G C15A A25G G30C G36C U43C], the self-cleavage came out at 0.01. Turning to GGCAGAGCGCAAAACAGUGUGGCAAAGUGGCUGUGGCUAGACUGCC [U9G C13A C18U], the self-cleavage worked out at 0.06. Take GGCAGAGCGCAAUACACCGUGGCAAAGUGGCGGUGGCUAGACUGCC [U9G C13U G17C U32G]: the self-cleavage was 0.1. Under GGCAGAGCGUAACACAGCGGAGCAAAGUCGCUAUGGCUAUACUACC [U9G C10U U20G G21A G29C G33A G40U G44A] stands 0.02.

On to GGCAGAGCGCAAAAAAGCGUGGCAAAGUGGUUGUGGCUAGACUGCC [U9G C13A C15A C31U], for which the self-cleavage was 0.03. GGCAGAGCGCAACACAGCGUAGCAAAGUGGCUCUGGCUAGACUGGC [U9G G21A G33C C45G]: the self-cleavage turned out to be 0.02. Consider GGCAGAGCGUAACACAGCGUGGCAAAGUGGCUGUGGCUAGACUUCC [U9G C10U G44U], for which the self-cleavage amounted to 0.04. For GGCAGAGCGCAAUAGAGCGUGGCAAAGUCGCUGUGGCUAGACUGCC [U9G C13U C15G G29C], the self-cleavage amounted to 0.11. Under GGCAGAGCGCAACACAGCGUGACACAGUGGCUGUGGCCAGACUCCC [U9G G22A A25C U38C G44C] stands 0.04; under GGCAGAGCGCAAUACAGCGUGGCAAAGUGGCUGUGGCUAGAUUGCC [U9G C13U C42U], 0.07.

Regarding GGCAGAGCGGAACACAGCGUAGAAAAGUGGCUGUGGCUAUACUGCU [U9G C10G G21A C23A G40U C46U], the self-cleavage is 0. Turning to GGCAGAGCGCAACACAGGGUGGCAUAGUGGCUGUGGCAUGGGGGCC [U9G C18G A25U U38A A39U A41G C42G U43G], the self-cleavage amounted to 0.03. Turning to GGCAGAGCGUAACAUAACGGGGCAAAGUGGCCGUGGAUUGACUGAC [U9G C10U C15U G17A U20G U32C C37A A39U C45A], the self-cleavage turned out to be 0.02. In the case of GGCAGAGCGCAACACAGCGUGGCAAAUUGGCAGUGGCGAGACUGCC [U9G G27U U32A U38G], the self-cleavage was 0.02. As for GGCAGAGCGCAACACUGCGUGGCAAAGUGGCUGUCGCUGGACUGCU [U9G A16U G35C A39G C46U], the figure is 0.03; as for GGCAGAGCGCAACACAGCGUGGCAAAGUGGAUGAGGCUAGACUGCC [U9G C31A U34A], 0.02; as for GGCAGAGCGCAACAUAGCGUAGCAAAGUUGCUGUAGCUAGACUGCC [U9G C15U G21A G29U G35A], 0.02. As to GGCAGAGCGCAACACAGCGUGGCAAGGUGGCUGUGGCUAGCCUGCC [U9G A26G A41C], the self-cleavage was 0.02. With GGCAGAGCGCAACACAGUGUCGCAAAGUGGCUCUGGCUAGACUGCC [U9G C18U G21C G33C], the self-cleavage came to 0.01. As to GGCAGAGCGCAACACAGCGUGGCACAGUGGCUGUGGCUCUACUGUC [U9G A25C A39C G40U C45U], the self-cleavage is 0.02. For GGCAGAGCGCAACACAGCGUGGCAACGUGGGUGUCGCUAGACUGCC [U9G A26C C31G G35C], the self-cleavage came out at 0.02. In the case of GGCAGAGCGCAACACAGCGUCGCAAAGUGGCUGUGGCUAGAUUGCC [U9G G21C C42U], the self-cleavage was 0.04. Turning to GGCAGAGCGCAACACAGCGUGGCCUAGUGGCUAUGGCUAGACUGCC [U9G A24C A25U G33A], the self-cleavage stood at 0.06. Under GGCAGAGCGCAACACAGAGUGGCAAAGUGGCUGAGGCUAGACUCCC [U9G C18A U34A G44C] stands 0.04. Under GGCAGAGCGCAACACAGCGGGGCAAAGUGGCUGUGGCUAGAUUGCC [U9G U20G C42U] stands 0.01; under GGCAGAGCGCAACACAGCCUCGCAAAGCGGCUGUGGCUCGGCUGCC [U9G G19C G21C U28C A39C A41G], 0.

As to GGCAGAGCGCAACAGAGCGUGGCAAAGUGGCUGUGGUUAGACUGCC [U9G C15G C37U], the self-cleavage amounted to 0.09. GGCAGAGCGCAACACAGCGUGGCAAACUGGCUGUGGCUACACUGCC [U9G G27C G40C]: the self-cleavage was determined as 0.04. Consider GGCAGAGCGCAACACAGAGUGGCAAAGUGGCUACGGCUAGACUGCC [U9G C18A G33A U34C], for which the self-cleavage was determined as 0.13.

(Values after the RNAGym collection of RNA variant scans (doi:10.7554/elife.90254).)
